Source: publication PMC6919601, “Identification of Plasmodium dipeptidyl aminopeptidase allosteric inhibitors by high throughput screening” (PLoS ONE, 2019)
Screen size: about 110,000 compounds; about 230 (0.21%) showed an effect of 50% or more. This is one part of the list.

Target: DPAP1 (Plasmodium falciparum, UniProt Q8IIJ9)
Assay: primary screen, percent inhibition; read by cleavage of a fluorogenic dipeptide substrate; higher = more effect of the substance
Parameters: species or system P. falciparum D10 trophozoite lysates; single well
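Also: 30 min substrate incubation versus DMSO and 10 µM JCP410 controls.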

Chain of DPAP1 (Q8IIJ9 whole entry, looked up): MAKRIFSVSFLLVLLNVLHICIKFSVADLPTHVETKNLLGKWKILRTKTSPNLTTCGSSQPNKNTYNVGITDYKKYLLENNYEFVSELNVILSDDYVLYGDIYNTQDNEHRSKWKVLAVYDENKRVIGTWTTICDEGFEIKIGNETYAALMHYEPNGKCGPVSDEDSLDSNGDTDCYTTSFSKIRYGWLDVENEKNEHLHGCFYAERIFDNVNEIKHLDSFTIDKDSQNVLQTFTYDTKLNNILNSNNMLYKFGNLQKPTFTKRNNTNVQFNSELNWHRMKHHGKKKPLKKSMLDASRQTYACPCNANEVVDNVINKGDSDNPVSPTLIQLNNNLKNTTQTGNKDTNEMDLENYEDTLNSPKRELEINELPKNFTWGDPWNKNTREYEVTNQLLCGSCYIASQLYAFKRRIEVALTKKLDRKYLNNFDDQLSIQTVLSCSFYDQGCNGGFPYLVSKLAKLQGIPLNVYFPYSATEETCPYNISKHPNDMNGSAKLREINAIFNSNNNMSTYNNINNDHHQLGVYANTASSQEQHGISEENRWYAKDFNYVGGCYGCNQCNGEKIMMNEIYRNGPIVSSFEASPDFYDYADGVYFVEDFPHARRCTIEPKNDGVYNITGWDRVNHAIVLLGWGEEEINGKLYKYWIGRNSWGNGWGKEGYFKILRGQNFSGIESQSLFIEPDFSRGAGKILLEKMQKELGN

SMILES	% Inhibition @ 10 uM
Cn1c2ccc(Br)cc2c2nc3cc4ccccc4cc3nc21	1.08%
CCN1CCN(C(=O)C2CCCN(c3nn4cc(-c5ccc(C)cc5)nc4s3)C2)CC1 (centres unmarked)	-1.14%
CN(C)c1ccc(C=C2C(=O)NC(=S)NC2=O)cc1	-5.51%
COc1ccc(-c2csc3ncn(CC(=O)Nc4cccc5ccccc45)c(=O)c23)cc1OC	0.163%
O=S(=O)(Cc1ccccc1F)c1oc(-c2ccc(F)cc2)nc1S(=O)(=O)c1ccccc1	-1.44%
C=CCNC(=S)N(Cc1ccccc1)Cc1ccc(F)cc1	-3.21%
Oc1nc(/C=C/c2cccc(Cl)c2Cl)cc(C(F)(F)F)n1	-2.48%
COC(=O)c1c(C)[nH]c(C)c1-c1ccc(OC)cc1	-5.36%
COCCCn1c(=N)c(C(=O)NCc2ccccc2)cc2c(=O)n3ccccc3nc21	1.97%
COc1ccc(CN(C(=O)COc2ccc(Cl)cc2C)C2CCS(=O)(=O)C2)cc1OC (centres unmarked)	-5%
Cc1cc(Oc2nc3ccccn3c(=O)c2/C=C(\C#N)C(=O)N2CCCCC2)ccc1Cl	2.16%
O=C(Nc1nc(-c2ccc(S(=O)(=O)N3CCOCC3)cc2)cs1)c1cccs1	-8.53%
CC1(C)N=C(N)NC(Nc2ccccc2)=N1	0.162%
O=S(=O)(c1ccccc1)c1nnn2c1nc(NC1CCN(Cc3ccccc3)CC1)c1ccccc12	-2.14%
CCOC(=O)N1CCN(c2c(N3CCN(C(=O)OCC)CC3)c(=O)c2=O)CC1	-3.21%
CS(=O)(=O)N1CCC(C(=O)NCc2cccnc2)CC1	-6.59%
COc1ccc(NC(=O)/C(=C/c2ccco2)NC(=O)c2ccc(C)c(C)c2)cc1	5.67%
CCOc1ccccc1C1C(C(=O)OC)=CN(C)C=C1C(=O)OC	-3.23%
O=C(Cn1cc(S(=O)(=O)Cc2cccc(C(F)(F)F)c2)c2ccccc21)N1CCCC1	0.292%
COc1cc(/C=C2/SC(=O)N(C(C)C)C2=O)cc(OC)c1O	-1.6%
CC(=O)Nc1ccc(S(=O)(=O)Nc2ccc3c(c2)oc2ccccc23)cc1	2.44%
CC[C@@H](C)[C@H](NC(=O)c1ccc2ccccc2c1)C(=O)N[C@@H](CCc1ccccc1)C(=O)COCc1ccccc1	-7.36%
CCCCOc1ccc(CNC2=NS(=O)(=O)C(c3ccc(C(C)C)cc3)=C2C)cc1	-1.08%
Cc1cccc2sc(NC(=O)COc3ccccc3)nc12	-3.45%
O=C(Cn1c(SCc2ccccc2)nc2ccccc21)N1CCOCC1	-5.51%

SMILES	% Inhibition @ 10 uM
CC(=O)NCCCCCc1nc2ccccc2n1Cc1ccccc1	-3.49%
COc1ccccc1NC(=O)c1ccccc1NC(=O)c1cc(OC)c(OC)c(OC)c1	-0.795%
O=C1CC(=O)N2N=C(c3ccccc3)SC2=N1	1.88%
O=C(/C=C/c1ccc([N+](=O)[O-])cc1)c1ccc(-c2ccccc2)cc1	-0.239%
O=C(/C=C/c1ccc(Cl)cc1)NCCc1nc2ccccc2[nH]1	4.1%
CCOc1ccc(N2C(=O)/C(=C/c3ccco3)C(=O)NC2=S)cc1	5.2%
CCOC(=O)c1cnn(-c2nc(C)nc3sc(-c4ccccc4)cc23)c1/N=C/N(C)C	-3.41%
CNC(=S)N(CCc1c(C)[nH]c2ccccc12)Cc1cccs1	2.75%
CC1CCCC(C)N1CCNC(=O)CCn1nc(-c2ccc(Cl)cc2)ccc1=O (centres unmarked)	1.62%
Cc1c(CNCCN(C)C)c(C(=O)O)c(C)n1Cc1ccccc1F	-5.49%
CC(NS(=O)(=O)c1c(Cl)cccc1Cl)C(=O)O (centres unmarked)	3.16%
CC(C)(C)c1ccc(OCC(=O)N(Cc2cccs2)C2CCS(=O)(=O)C2)cc1 (centres unmarked)	-5%
CCC(=O)Nc1c(N)sc2nc(C)cc(COC)c12	-0.0678%
Cc1ccccc1C1=N/C(=C\c2ccc3ccccc3c2)C(=O)O1	2.72%
O=c1oc2ccccc2cc1-c1nc(-c2ccc(Cl)cc2)no1	-4.63%
c1ccc(CCN2CCN(Cc3ccccc3)CC2)cc1	-3.57%
COc1ccc(/C=c2\sc3nncn3c2=O)cc1	4.95%
O=C1CC(N2CCN(c3cccc(Cl)c3)CC2)C(=O)N1c1ccc(F)cc1 (centres unmarked)	0.144%
CC(C)CCNC(=O)Cn1cnc2c1c(=O)n(C)c(=O)n2C	-5.06%
CCOC(=O)C1CCN(c2ccc(C(F)(F)F)cn2)CC1	-0.711%
O=C(Nc1ccccc1-c1nc2ccccc2s1)c1ccc(S(=O)(=O)N2CCCCC2)cc1	2.86%
CC(C)Cn1c(CCC(=O)O)ccc1-c1ccccc1	3.94%
COc1ccc(OC)c(NC(=O)C(C)NS(=O)(=O)c2ccc(C)cc2)c1 (centres unmarked)	-3.87%
CC1=Nc2c([nH]c3ccccc23)-c2cc(C)ccc2N1	9.92%
CC(=O)NCCSc1c(-c2ccc(C)cc2)[nH]c2ccccc12	-0.228%

SMILES	% Inhibition @ 10 uM
c1ccc(CN2CCN(C3Cc4ccccc4C3)CC2)cc1	-3.27%
CCCc1cc(O)n2nc(-c3cccnc3)nc2n1	2.62%
Cc1ccc(NC(=O)c2ccccc2)cc1F	-1.05%
Cc1ccccc1C(=O)NC1=NC(=O)C(C)S1 (centres unmarked)	3.59%
COc1ccc(C)cc1N(CC(=O)Nc1ccc2ccccc2c1)S(C)(=O)=O	-3.46%
Cc1cccc(-c2nnc(C3CCN(S(=O)(=O)c4c(F)c(F)c(F)c(F)c4F)CC3)o2)c1	-2.88%
CCC(C)NC(=O)CCNS(=O)(=O)c1ccc(OC)cc1 (centres unmarked)	-4.06%
CN(C)S(=O)(=O)c1ccc(-c2csc(-c3ccccc3)n2)cc1	-2.19%
COc1nccnc1NS(=O)(=O)c1ccc(NC(=O)c2ccccc2Cl)cc1	1.24%
CC(=O)c1ccc(N2CCN(C(=O)c3ccc(Br)cc3)CC2)c(F)c1	-2.28%
O=C(Nc1ccc(-c2ccc([N+](=O)[O-])cc2)cc1)c1ccc(F)cc1	5.64%
CC/C(=N/OC(=O)c1cccc(C)c1)C(=O)c1cccs1	0.343%
Cc1nn(CC(=O)NCCN2CCOCC2)c(=O)c2nn(-c3ccccc3)c(C)c12	-7.53%
CCCc1nn2c(=O)cc(COc3ccc(/C=C4\C(=N)N5N=C(C)SC5=NC4=O)cc3)nc2s1	-3.95%
Cc1ccc2ncc(NC(=O)N3CCCCCC3)c(O)c2c1	-2.84%
CCCCCCOc1ccc(CN(CCO)CCO)cc1	-2.95%
CCOc1ccc(C2C3=C(CC(C)(C)CC3=O)OC3=C2C(=O)CC(C)(C)C3)cc1	-5.15%
Fc1ccc(N2CCN(Cc3cccc4ccccc34)CC2)cc1	-3.71%
COc1ccc(NS(=O)(=O)c2cccc(C(=O)Nc3ccc(C(=O)O)cc3)c2)cc1	-3.66%
O=C(NCc1nc2ccccc2n1Cc1c(F)cccc1Cl)c1ccccc1	-11.8%
Cc1nc2sc(C(=O)c3ccccc3)c(N)c2c(C)c1C	-1.97%
Cc1cccc(-c2nc(CSCC(=O)NCc3ccccc3)c(C)o2)c1	2.16%
CC(C)N(C(=O)Nc1cccc(Cl)c1)C(C)C	1.55%
Cc1ccc(OC(C)C(=O)Nc2ccccc2Cl)cc1 (centres unmarked)	-0.95%
Cn1cnc2c(=O)oc3ccc(S(=O)(=O)NCc4ccccc4)cc3c21	-1.14%

SMILES	% Inhibition @ 10 uM
FC(F)(F)c1cccc(N2CCN(Cc3cccc(Cl)c3)CC2)c1	-3.65%
Cc1cccc(OCCCc2c(C)n[nH]c2C)c1	1.9%
COc1ccc(/C=C2\C(=N)N3N=C(S(C)(=O)=O)SC3=NC2=O)cc1	-5.27%
COC(=O)c1ccc(/C=C/c2nc3cc(C)c(C)cc3o2)cc1	-7.99%
N#C/C(=C\c1ccc(Cl)cc1)C(=O)Nc1nc2c(s1)CN(Cc1ccccc1)CC2	3.79%
Cc1ccc(NC(=O)c2ccc3c(c2)C(=O)N(CC(C)C)C3=O)c(C(=O)O)c1	-0.796%
N#C/C(=C\c1c(Oc2ccccc2Cl)nc2ccccn2c1=O)C(=O)NCCc1ccccc1	-4%
CC(C)Nc1nc(Cl)nc(NC(C)(C)CO)n1	-1.82%
Cc1ccsc1CN(C)CCN(C)C	4.55%
CCN(CCN(C)C)Cc1ccccc1C	-1.64%
COc1ccc(N2CCN(C(=O)c3ccc4ccccc4n3)CC2)cc1	-1.36%
O=C1CC(c2ccc(Cl)cc2)Nc2nc3ccccc3n21 (centres unmarked)	3.35%
CC(C)C[C@H](OC(=O)N[C@@H]1C[C@H]1c1ccccc1)C(=O)NCC#N	3.66%
Cc1cc(C)c(-c2[nH]nc3c2C(c2ccc(Br)cc2)N(CCO)C3=O)c(O)c1 (centres unmarked)	-1.71%
CCC(=O)Nc1sc2c(c1C#N)CCC(CC)C2 (centres unmarked)	-5.14%
C/C(=N\CCCN1CCOCC1)c1c(C)nn(-c2ccc(Br)cc2Br)c1O	-4.21%
CCN(CC)CCCNC(=O)CNC(=S)N(CCCN1CCOCC1)Cc1cccs1	4.47%
CC(=O)c1cccc(NC(=O)CSCc2cccc(Br)c2)c1	-3.55%
CC1=CC2=NC(=O)/C(=C\c3cc(C)n(-c4ccc(C)c(Cl)c4)c3C)C(=N)N2O1	-3.23%
O=C1NC(=S)N/C1=C/c1cc(Br)cc(Br)c1O	27.4%
Cc1ccc2ncc(S(=O)(=O)c3ccc(C(C)C)cc3)c(O)c2c1	-3.45%
CCOC(=O)c1c(C)oc2nc(C)nc(N(C)Cc3ccco3)c12	4.44%
O=C(O)c1c2c(nc3ccccc13)CCC2	-1.8%
